Experimental findings from publication doi:10.1101/2024.08.22.609182 (bioRxiv, 2024) are described below.

Series [1] deals with adenylate kinase 2 (AK2), recombinant human (human, UniProt P54819). Nature of the series: SEC.
The series “SEC” concerns the molecule itself. Nature of the series: SEC. (Size exclusion chromatography separates by hydrodynamic size, large species first.)

B1: AIFM1 W196A (Cβ-clasp mutant, constitutive C-loop release variant) (domain or fragment)
chain: not shown
For the molecule B1, the binding result in series [1] is “binds”. Besides, the stoichiometry N (as a rule, the number of molecules, sites or subunits per partner or assembly) in “SEC” came to 2.
